Source: patent publication US5616684A, “Cyclic peptides and use thereof” (priority 1991, dated 1997)
Not every detail of the peptide structures is certain; ends, links or a residue may be inferred. Non-standard residues stand in square brackets, D forms with d. Residues, ends and D or L forms follow the SMILES beside them. Groups on a side chain read outwards from the residue. *: point of attachment. His(π-Bom) = N[C@@H](Cc1cncn1COCc1ccccc1)C(=O)O; His(τ-Bzl) = N[C@@H](Cc1cn(Cc2ccccc2)cn1)C(=O)O; Hydrocinnamoyl = O=C(CCc1ccccc1)*; NHPhenethyl = c1ccc(CCN*)cc1; Orn = NCCC[C@H](N)C(=O)O; Thz = O=C(O)[C@@H]1CSCN1; NHBn = c1ccc(CN*)cc1

Assays:
[1] = target: T1, endothelin receptor A (ETA) (Sus scrofa, UniProt Q29010); assay: Assay of Affinity for Receptor (1): Binding Activity on ETA Receptor; set-up: key: relative binding activity; reference cyclic pentapeptide = 1.0; conditions: specific activity, binding activity of cyclo[-D-Glu-Ala-D-aIle-Leu-D-Trp-] taken as 1.0; porcine heart membrane fraction, 125I-labeled endothelin-1, 25° C., 1 hour
T1 construct: A membrane fraction prepared from the porcine heart; from tissue; host or cells: porcine heart membrane fraction
T1 sequence (Q29010 21-427): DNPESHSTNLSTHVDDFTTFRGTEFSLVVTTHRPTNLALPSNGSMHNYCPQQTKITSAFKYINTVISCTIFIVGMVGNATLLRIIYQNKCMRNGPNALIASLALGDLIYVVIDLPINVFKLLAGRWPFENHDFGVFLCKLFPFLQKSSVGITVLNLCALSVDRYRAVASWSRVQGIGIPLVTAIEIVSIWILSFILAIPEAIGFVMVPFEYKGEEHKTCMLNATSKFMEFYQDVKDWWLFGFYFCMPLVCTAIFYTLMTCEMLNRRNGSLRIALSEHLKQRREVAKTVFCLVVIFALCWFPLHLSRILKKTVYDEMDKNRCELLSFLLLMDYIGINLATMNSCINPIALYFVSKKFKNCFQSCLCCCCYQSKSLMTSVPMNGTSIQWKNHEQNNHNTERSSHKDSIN
Method: Assay of Affinity for Receptor (1) . . . Binding Activity on ETA Receptor
A membrane fraction prepared from the porcine heart was diluted to 0.15 mg/ml by using a buffer solution for assay, and 100 μl of the resulting suspension of the membrane fraction was poured into each assay tube to use for assay. To this suspension of the membrane fraction was added 2 μl of 5 nM ^125 I-labeled endothelin-1 solution. Further, 3 μl of a test peptide solution was added thereto, followed by incubation at a temperature of 25° C. for 1 hour. Then, the resulting suspension was diluted with 900 μl of the buffer solution for assay cooled with ice, and thereafter separated into a supernatant and a precipitate by centrifugation at 12,000×g for 10 minutes. Cell membranes and an endothelin receptor A (ETA) embedded therein were contained in the precipitate, and radioactive iodine-labeled endothelin combined with the receptor was also recovered in the precipitate. Accordingly, the amount of radioactive iodine-labeled endothelin combined with the endothelin receptor A (ETA) was determined by measuring the amount of radioactive iodine contained in the precipitate with a gamma-ray counter. The cyclic pentapeptide described in Japanese Patent Application No. 2-413828/1990, cyclo[-D-Glu-Ala-D-aIle-Leu-D-Trp-], was used as a control compound. The numerical value of ETA shown in Table 1 is the value of specific activity, taking the binding activity of this cyclic pentapeptide on the receptor A as 1.0. The binding activity (IC50) of this cyclic pentapeptide on the ETA receptor is 2×10^-6 M.

[2] = target: T2, endothelin receptor B (ETB) (Bos taurus, UniProt P28088); assay: Assay of Affinity for Receptor (2): Binding Activity on ETB Receptor *1; set-up: key: relative specific activity, Example 8 compound = 100; conditions: specific activity, binding activity of the compound of Example 8 taken as 100; bovine brain membrane fraction, 125I labeled endothelin-1, 25° C., 1 hour
T2 construct: A membrane fraction prepared from the bovine brain; from tissue; host or cells: bovine brain membrane fraction
T2 sequence (P28088 27-441): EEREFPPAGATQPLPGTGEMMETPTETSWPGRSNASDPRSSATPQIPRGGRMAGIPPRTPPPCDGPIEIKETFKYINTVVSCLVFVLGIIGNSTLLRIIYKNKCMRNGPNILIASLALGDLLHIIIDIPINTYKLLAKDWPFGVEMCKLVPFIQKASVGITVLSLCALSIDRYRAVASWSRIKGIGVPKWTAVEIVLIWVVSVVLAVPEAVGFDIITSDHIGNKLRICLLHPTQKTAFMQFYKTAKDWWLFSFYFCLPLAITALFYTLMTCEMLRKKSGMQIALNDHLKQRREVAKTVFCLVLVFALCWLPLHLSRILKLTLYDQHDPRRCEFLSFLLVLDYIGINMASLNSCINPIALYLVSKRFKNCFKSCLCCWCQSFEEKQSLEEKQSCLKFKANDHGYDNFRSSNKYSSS
Method: Assay of Affinity for Receptor (2) . . . Binding Activity on ETB Receptor *1
A membrane fraction prepared from the bovine brain was diluted to 0.15 mg/ml by using a buffer solution for assay, and 100 μl of the resulting suspension of the membrane fraction was poured into each assay tube to use for assay. To this suspension of the membrane fraction was added 2 μl of 5 nM ^125 I labeled endothelin-1 solution. Further, 3 μl of a test peptide solution was added thereto, followed by incubation at a temperature of 25° C. for 1 hour. Then, the resulting suspension was diluted with 900 μl of the buffer solution for assay cooled with ice, and thereafter separated into a supernatant and a precipitate by centrifugation at 12,000×g for 10 minutes. Cell membranes and an endothelin receptor B (ETB) embedded therein were contained in the precipitate, and radioactive iodine-labeled endothelin bound to the receptor was also recovered in the precipitate. Accordingly, the amount of radioactive iodine-labeled endothelin bound to the endothelin receptor B (ETB) was determined by measuring the amount of radioactive iodine contained in the precipitate with a gamma-ray counter. The numerical value of ETB shown in Table 1 is the value of specific activity, taking the binding activity of the compound of Example 8 on the receptor B as 100.

[3] = test system: ETB receptor (guinea pig kidney crude receptor membrane fraction); assay: ETB Radio Receptor Assay *2; type: binding; conditions: relative activity (Example 8 given as 100), 125I-endothelin-1, 37° C., 90 minutes
Method: ETB Radio Receptor Assay *2
In the endothelin radio receptor assay, guinea pigs' kidneys were used. Guinea pigs (Std Hartrey, male 250 g, Japan SLC Ltd.) were made to have a cerebral concussion and sacrificed by bleeding from carotid arteries to pick up the kidneys and removed fat therefrom to prepare the kidneys. The obtained kidneys were sliced and homogenized by politron homogenizer in 20 ml of 50 mM Tris-HCl buffer [pH 7.4; 20 mM NaHCO3, 0.1 mM PMSF (Phenylmethylsulfonyl Fluoride), 1 mM EDTA (Ethylenediaminetetraacetic acid)] per one kidney. The homogenized kidney was applied to a centrifugation at 1,000×g for 15 minutes and the supernatant was further applied to a centrifugation for 20 minutes at 30,000×g. The resulting precipitate was twice washed with 50 mM Tris-HCl buffer (pH 7.4) containing 0.1 mM PMSF, 1 mM EDTA. The resultant was stored at -80 ° C. as a crude receptor membrane fraction and was used as the suspension in the following buffer when necessary.
740 Bq of ^125 I-endothelin-1 (81.4 TBq/mmol, Du Pont, USA) as a radio ligand, the crude membrane fraction (2.1 μg protein) and samples were added to the following buffer. The reaction was performed at 37° C., for 90 minutes in 0.2 ml of the buffer [50 mM Tris-HCl buffer (pH 7.4) containing 0.1 mM PMSF, 1 mM EDTA, 0.2% bovine serum albumin].
The reaction was stopped by fast filtration on a glass filter (GF/B, Wattman, USA) by Cell Harvestor (290 PHD, Cambridge-Technology, Great Britain), and the filter was three times washed with 50 mM Tris-HCl buffer (pH 7.4). Radio activity remained on the filter was assayed by a gamma counter.

## CC(C)C[C@@H]1NC(=O)[C@@H](CC(C)C)NC(=O)[C@H](CC(=O)O)NC(=O)[C@H](C)NC(=O)[C@@H](CC(=O)O)NC(=O)[C@@H](Cc2c[nH]c3ccccc23)NC1=O [Example 1, cyclo[-D-Asp-Ala-Asp-D-Leu-Leu-D-Trp-]] (cyclo(AD[dL]L[dW][dD]))
[1]
  Binding Activity on ET Receptor (R. act.) ETA: 9.7
[2]
  Binding Activity on ET Receptor (R. act.) ET8 *1: 13
[3]
  Binding Activity on ET Receptor (R. act.) ET8 *2: 2.0

## CC(C)C[C@@H]1NC(=O)[C@@H](CC(C)C)NC(=O)[C@H](CC(=O)O)NC(=O)[C@H](CC(=O)NCc2ccccc2)NC(=O)[C@@H](CC(=O)O)NC(=O)[C@@H](Cc2c[nH]c3ccccc23)NC1=O [Example 10, cyclo[-D-Asp-Asn(CH2Ph)-Asp-D-Leu-Leu-D-Trp-]] (cyclo(D(NHBn)D[dL]L[dW][dD]))
[1]
  Binding Activity on ET Receptor (R. act.) ETA: 43
[2]
  Binding Activity on ET Receptor (R. act.) ET8 *1: 26
[3]
  Binding Activity on ET Receptor (R. act.) ET8 *2: 24

## CC(C)C[C@@H]1NC(=O)[C@@H](CC(C)C)NC(=O)[C@H](CC(=O)O)NC(=O)[C@H](CC(=O)NCCc2ccccc2)NC(=O)[C@@H](CC(=O)O)NC(=O)[C@@H](Cc2c[nH]c3ccccc23)NC1=O [Example 11, cyclo[-D-Asp-Asn(CH2 CH2 Ph)-AsP-D-Leu-Leu-D-Trp-]] (cyclo(D(NHPhenethyl)D[dL]L[dW][dD]))
[1]
  Binding Activity on ET Receptor (R. act.) ETA: 93
[2]
  Binding Activity on ET Receptor (R. act.) ET8 *1: 42
[3]
  Binding Activity on ET Receptor (R. act.) ET8 *2: 44

## CC(C)C[C@@H]1NC(=O)[C@@H](CC(C)C)NC(=O)[C@H](CC(=O)O)NC(=O)[C@H](CCCNC(=O)CCc2ccccc2)NC(=O)[C@@H](CC(=O)O)NC(=O)[C@@H](Cc2c[nH]c3ccccc23)NC1=O [Example 81, cyclo[-D-Asp-Orn(COCH2 CH2 Ph)-Asp-D-Leu-Leu-D-Trp- ]] (cyclo(D[dL]L[dW][dD][Orn](Hydrocinnamoyl)))
[1]
  Binding Activity on ET Receptor (R. act.) ETA: 68
[3]
  Binding Activity on ET Receptor (R. act.) ET8 *2: 160

## CC(C)C[C@@H]1NC(=O)[C@@H](CC(C)C)NC(=O)[C@H](CC(=O)O)NC(=O)[C@H](Cc2cncn2COCc2ccccc2)NC(=O)[C@@H](CC(=O)O)NC(=O)[C@@H](Cc2c[nH]c3ccccc23)NC1=O [Example 84, Cyclo[--D--Asp--His(Bom)--Asp--D--Leu--Leu--D--Trp--]] (cyclo(D[dL]L[dW][dD][His(π-Bom)]))
[1]
  Binding Activity on ET Receptor (R. act.) ETA: 20
[3]
  Binding Activity on ET Receptor (R. act.) ET8 *2: 80

## CC(C)C[C@@H]1NC(=O)[C@@H](CC(C)C)NC(=O)[C@H](CC(=O)O)NC(=O)[C@H](Cc2cn(Cc3ccccc3)cn2)NC(=O)[C@@H](CC(=O)O)NC(=O)[C@@H](Cc2c[nH]c3ccccc23)NC1=O [Example 85, Cyclo[--D--Asp--His(Bzl)--Asp--D--Leu--Leu--D--Trp--]] (cyclo(D[dL]L[dW][dD][His(τ-Bzl)]))
[1]
  Binding Activity on ET Receptor (R. act.) ETA: 19
[3]
  Binding Activity on ET Receptor (R. act.) ET8 *2: 43

## CC(C)C[C@@H]1NC(=O)[C@@H](CC(C)C)NC(=O)[C@H](CC(=O)O)NC(=O)[C@@H]2CSCN2C(=O)[C@@H](CC(=O)O)NC(=O)[C@@H](Cc2c[nH]c3ccccc23)NC1=O [Example 87, Cyclo[--D--Asp--Tpr--Asp--D--Leu--Leu--D--Trp--]] (cyclo(D[dL]L[dW][dD][Thz]))
[1]
  Binding Activity on ET Receptor (R. act.) ETA: 93
[3]
  Binding Activity on ET Receptor (R. act.) ET8 *2: 380

## CCNC(=O)[C@H](Cc1c[nH]c2ccccc12)NC(=O)C[C@@H]1NC(=O)[C@@H](CC(=O)O)NC(=O)[C@@H](Cc2c[nH]c3ccccc23)NC(=O)[C@H](CC(C)C)NC(=O)[C@@H](CC(C)C)NC(=O)[C@H](CC(=O)O)NC1=O [Example 91, Cyclo[--D--Asp--Asp(Trp--NHEt)--Asp--D--Leu--Leu--D--Trp--]] (cyclo(D([Trp-NHEt])D[dL]L[dW][dD]))
[1]
  Binding Activity on ET Receptor (R. act.) ETA: 130
[3]
  Binding Activity on ET Receptor (R. act.) ET8 *2: 200

## CC(C)C[C@@H]1NC(=O)[C@@H](CC(C)C)NC(=O)[C@H](CC(=O)O)NC(=O)[C@H](CC(=O)N[C@@H](Cc2c[nH]c3ccccc23)C(=O)NCc2ccccc2)NC(=O)[C@@H](CC(=O)O)NC(=O)[C@@H](Cc2c[nH]c3ccccc23)NC1=O [Example 92, Cyclo[--D--Asp--Asp(Trp--NHBzl)--Asp--D--Leu--Leu--D--Trp--]] (cyclo(D([Trp-NHBn])D[dL]L[dW][dD]))
[1]
  Binding Activity on ET Receptor (R. act.) ETA: 95
[3]
  Binding Activity on ET Receptor (R. act.) ET8 *2: 260

## CC(C)C[C@@H]1NC(=O)[C@@H](CC(C)C)NC(=O)[C@H](CC(=O)O)NC(=O)[C@H](CC(=O)N[C@H](Cc2c[nH]c3ccccc23)C(=O)NCc2ccccc2)NC(=O)[C@@H](CC(=O)O)NC(=O)[C@@H](Cc2c[nH]c3ccccc23)NC1=O [Example 93, Cyclo[--D--Asp--Asp(D--Trp--NHBzl)--Asp--D--Leu--Leu--D--Trp--]] (cyclo(D([dW-NHBn])D[dL]L[dW][dD]))
[1]
  Binding Activity on ET Receptor (R. act.) ETA: 110
[3]
  Binding Activity on ET Receptor (R. act.) ET8 *2: 270

## CC(C)C[C@@H]1NC(=O)[C@@H](CC(C)C)NC(=O)[C@H](CC(=O)O)NC(=O)[C@H](CC(=O)N[C@@H](Cc2c[nH]c3ccccc23)C(=O)NCCc2ccccc2)NC(=O)[C@@H](CC(=O)O)NC(=O)[C@@H](Cc2c[nH]c3ccccc23)NC1=O [Example 94, Cyclo[--D--Asp--Asp(Trp--NHCH2 CH2 Ph)--Asp--D--Leu--Leu--D--Trp--]] (cyclo(D([Trp-NHPhenethyl])D[dL]L[dW][dD]))
[1]
  Binding Activity on ET Receptor (R. act.) ETA: 120
[3]
  Binding Activity on ET Receptor (R. act.) ET8 *2: 140
